# Measured values as given in the supplement of paper PMC8728848.
# This is one part of the list.
# Legend:
# Assay in all cases: glycan array binding signal (z-score within array); higher = stronger binding
# Conditions in all cases: glycan notation: IUPAC condensed, linker removed
# [1] = molecular target: Gal(b1-4)GlcNAc(b1-3)Gal(b1-4)GlcNAc(b1-3)Gal(b1-4)GlcNAc(b1-3)Gal(b1-4)GlcNAc(b1-3)Gal(b1-4)GlcNAc(b1-2)Man(a1-3)[Gal(b1-4)GlcNAc(b1-3)Gal(b1-4)GlcNAc(b1-3)Gal(b1-4)GlcNAc(b1-3)Gal(b1-4)GlcNAc(b1-3)Gal(b1-4)GlcNAc(b1-2)Man(a1-6)]Man(b1-4)GlcNAc(b1-4)GlcNAc
# How it was run: (§1)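 Glycan array binding is given as a within-array Z-score, which can be read as non-binding when negative. The arrays, 3228 of them, came from the Consortium for Functional Glycomics database and were retained only where the protein sequence was available. Z-scores were averaged across arrays of the same protein sequence at different concentrations or buffers and across linkers.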
# [2] = molecular target: Gal(b1-4)GlcNAc(b1-3)Gal(b1-4)GlcNAc(b1-3)Gal(b1-4)GlcNAc(b1-3)Gal(b1-4)GlcNAc(b1-3)Gal(b1-4)GlcNAc(b1-2)Man(a1-3)[Gal(b1-4)GlcNAc(b1-3)Gal(b1-4)GlcNAc(b1-3)Gal(b1-4)GlcNAc(b1-3)Gal(b1-4)GlcNAc(b1-3)Gal(b1-4)GlcNAc(b1-2)Man(a1-6)]Man(b1-4)GlcNAc(b1-4)[Fuc(a1-6)]GlcNAc
# How it was run: as §1
# [3] = molecular target: Gal(b1-4)GlcNAc(b1-3)Gal(b1-4)GlcNAc(b1-3)Gal(b1-4)GlcNAc(b1-3)Gal(b1-4)GlcNAc(b1-3)Gal(b1-4)GlcNAc(b1-2)[Gal(b1-4)GlcNAc(b1-3)Gal(b1-4)GlcNAc(b1-3)Gal(b1-4)GlcNAc(b1-3)Gal(b1-4)GlcNAc(b1-3)Gal(b1-4)GlcNAc(b1-6)]Man(a1-6)[Gal(b1-4)GlcNAc(b1-3)Gal(b1-4)GlcNAc(b1-3)Gal(b1-4)GlcNAc(b1-3)Gal(b1-4)GlcNAc(b1-3)Gal(b1-4)GlcNAc(b1-2)Man(a1-3)]Man(b1-4)GlcNAc(b1-4)[Fuc(a1-6)]GlcNAc
# How it was run: as §1
# [4] = molecular target: Gal(b1-4)GlcNAc(b1-3)Gal(b1-4)GlcNAc(b1-3)Gal(b1-4)GlcNAc(b1-3)Gal(b1-4)GlcNAc(b1-3)Gal(b1-4)GlcNAc(b1-3)Gal(b1-4)GlcNAc(b1-2)Man(a1-3)[Gal(b1-4)GlcNAc(b1-3)Gal(b1-4)GlcNAc(b1-3)Gal(b1-4)GlcNAc(b1-3)Gal(b1-4)GlcNAc(b1-3)Gal(b1-4)GlcNAc(b1-3)Gal(b1-4)GlcNAc(b1-2)Man(a1-6)]Man(b1-4)GlcNAc(b1-4)GlcNAc
# How it was run: as §1
# [5] = molecular target: Gal(b1-4)GlcNAc(b1-3)Gal(b1-4)GlcNAc(b1-3)GalNAc
# How it was run: as §1
# [6] = molecular target: Gal(b1-4)GlcNAc(b1-3)Gal(b1-4)GlcNAc(b1-3)[Gal(b1-4)GlcNAc(b1-3)Gal(b1-4)GlcNAc(b1-6)]GalNAc
# How it was run: as §1
# [7] = molecular target: Gal(b1-4)GlcNAc(b1-3)Gal(b1-4)GlcNAc(b1-6)[Gal(b1-3)]GalNAc
# How it was run: as §1
# [8] = molecular target: Gal(b1-4)GlcNAc(b1-3)Gal(b1-4)[Fuc(a1-3)]GlcNAc(b1-3)Gal(b1-4)[Fuc(a1-3)]GlcNAc
# How it was run: as §1
# [9] = molecular target: Gal(b1-4)GlcNAc(b1-3)GalNAc
# How it was run: as §1
# [10] = molecular target: Gal(b1-4)GlcNAc(b1-3)[Fuc(a1-3)GlcNAc(b1-6)]Gal(b1-4)Glc
# How it was run: as §1
# [11] = molecular target: Gal(b1-4)GlcNAc(b1-3)[Gal(b1-4)GlcNAc(b1-6)]Gal(b1-4)GlcNAc
# How it was run: as §1
# [12] = molecular target: Gal(b1-4)GlcNAc(b1-3)[Gal(b1-4)GlcNAc(b1-6)]GalNAc
# How it was run: as §1
# [13] = molecular target: Gal(b1-4)GlcNAc(b1-3)[GlcNAc(b1-6)]Gal(b1-4)GlcNAc
# How it was run: as §1
# [14] = molecular target: Gal(b1-4)GlcNAc(b1-6)Gal(b1-4)GlcNAc
# How it was run: as §1
# [15] = molecular target: Gal(b1-4)GlcNAc(b1-6)GalNAc
# How it was run: as §1
# [16] = molecular target: Gal(b1-4)GlcNAc(b1-6)[Gal(b1-3)]GalNAc
# How it was run: as §1
# [17] = molecular target: Gal(b1-4)GlcNAc(b1-6)[Gal(b1-4)GlcNAc(b1-3)]GalNAc
# How it was run: as §1
# [18] = molecular target: Gal(b1-4)GlcNAc6P
# How it was run: as §1
# [19] = molecular target: Gal(b1-6)Gal
# How it was run: as §1
# [20] = molecular target: Gal3S(b1-3)GalNAc
# How it was run: as §1
# [21] = molecular target: Gal3S(b1-3)GlcNAc
# How it was run: as §1
# [22] = molecular target: Gal3S(b1-3)[Fuc(a1-4)]GlcNAc
# How it was run: as §1
# [23] = molecular target: Gal3S(b1-4)Glc
# How it was run: as §1
# [24] = molecular target: Gal3S(b1-4)Glc6S
# How it was run: as §1
# [25] = molecular target: Gal3S(b1-4)GlcNAc
# How it was run: as §1
# [26] = molecular target: Gal3S(b1-4)GlcNAc6S
# How it was run: as §1
# [27] = molecular target: Gal3S(b1-4)[Fuc(a1-3)]Glc6S
# How it was run: as §1
# [28] = molecular target: Gal3S(b1-4)[Fuc(a1-3)]GlcNAc
# How it was run: as §1
# [29] = molecular target: Gal3S(b1-4)[Fuc(a1-3)]GlcNAc6S
# How it was run: as §1
# [30] = molecular target: Gal3S4S(b1-4)GlcNAc
# How it was run: as §1
# [31] = molecular target: Gal3S6S(b1-4)GlcNAc
# How it was run: as §1
# [32] = molecular target: Gal3S6S(b1-4)GlcNAc6S
# How it was run: as §1
# [33] = molecular target: Gal4S(b1-4)GlcNAc
# How it was run: as §1
# [34] = molecular target: Gal4S6S(b1-4)GlcNAc
# How it was run: as §1
# [35] = molecular target: Gal6P(b1-4)GlcNAc
# How it was run: as §1
# [36] = molecular target: Gal6S(b1-3)GlcNAc
# How it was run: as §1
# [37] = molecular target: Gal6S(b1-3)GlcNAc6S
# How it was run: as §1
# [38] = molecular target: Gal6S(b1-4)Glc
# How it was run: as §1
# [39] = molecular target: Gal6S(b1-4)Glc6S
# How it was run: as §1
# [40] = molecular target: Gal6S(b1-4)GlcNAc
# How it was run: as §1
# [41] = molecular target: Gal6S(b1-4)GlcNAc6S
# How it was run: as §1
# [42] = molecular target: GalNAc(a1-3)Gal
# How it was run: as §1
# [43] = molecular target: GalNAc(a1-3)GalNAc
# How it was run: as §1
# [44] = molecular target: GalNAc(a1-3)GalNAc(b1-3)Gal(a1-4)Gal(b1-4)Glc
# How it was run: as §1
# [45] = molecular target: GalNAc(a1-3)GalNAc(b1-3)Gal(a1-4)Gal(b1-4)GlcNAc
# How it was run: as §1
binder,measurement,setting,value
"ABA (Agaricus bisporus), Q00022 (protein) MTYTISIRVYQTTPKGFFRPVERTNWKYANGGTWDEVRGEYVLTMGGSGTSGSLRFVSSDTDESFVATFGVHNYKRWCDIVTNLTNEQTALVINQEYYGVPIRDQARENQLTSYNVANAKGRRFAIEYTVTEGDNLKANLIIG",glycan array binding signal (z-score),[1],-0.275
same,glycan array binding signal (z-score),[2],-0.263
same,glycan array binding signal (z-score),[3],-0.21
same,glycan array binding signal (z-score),[4],-0.283
same,glycan array binding signal (z-score),[5],1.13
same,glycan array binding signal (z-score),[6],1.8
same,glycan array binding signal (z-score),[7],2.31
same,glycan array binding signal (z-score),[8],-0.181
same,glycan array binding signal (z-score),[9],-0.06
same,glycan array binding signal (z-score),[10],-0.003
same,glycan array binding signal (z-score),[11],-0.257
same,glycan array binding signal (z-score),[12],-0.172
same,glycan array binding signal (z-score),[13],0.342
same,glycan array binding signal (z-score),[14],-0.328
same,glycan array binding signal (z-score),[15],-0.196
same,glycan array binding signal (z-score),[16],0.995
same,glycan array binding signal (z-score),[17],-0.189
same,glycan array binding signal (z-score),[18],-0.104
same,glycan array binding signal (z-score),[19],-0.214
same,glycan array binding signal (z-score),[20],2.46
same,glycan array binding signal (z-score),[21],-0.254
same,glycan array binding signal (z-score),[22],-0.269
same,glycan array binding signal (z-score),[23],-0.109
same,glycan array binding signal (z-score),[24],-0.184
same,glycan array binding signal (z-score),[25],-0.236
same,glycan array binding signal (z-score),[26],-0.178
same,glycan array binding signal (z-score),[27],-0.22
same,glycan array binding signal (z-score),[28],-0.368
same,glycan array binding signal (z-score),[29],-0.179
same,glycan array binding signal (z-score),[30],-0.254
same,glycan array binding signal (z-score),[31],-0.211
same,glycan array binding signal (z-score),[32],-0.265
same,glycan array binding signal (z-score),[33],-0.245
same,glycan array binding signal (z-score),[34],-0.187
same,glycan array binding signal (z-score),[35],-0.267
same,glycan array binding signal (z-score),[36],-0.293
same,glycan array binding signal (z-score),[37],-0.294
same,glycan array binding signal (z-score),[38],-0.206
same,glycan array binding signal (z-score),[39],-0.233
same,glycan array binding signal (z-score),[40],-0.249
same,glycan array binding signal (z-score),[41],-0.266
same,glycan array binding signal (z-score),[42],-0.234
same,glycan array binding signal (z-score),[43],-0.247
same,glycan array binding signal (z-score),[44],-0.223
same,glycan array binding signal (z-score),[45],-0.204
